Data published in PubChem BioAssay AID434955 (Southern Research Specialized Biocontainment Screening …, 2010).
The other results are listed elsewhere or left out. The main result of the screen is listed elsewhere. These columns were measured beside it and carry no call. Compounds called inactive in the main read-out are mostly missing here.

experiment: beta-lactam sensitization of Mtb H37Rv, H37Rv (AID 434955);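 also: growth measured after seven days incubation then overnight dye step; 0% = bacteria only wells and 100% = bacteria with antibiotic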; conditions: M. tuberculosis H37Rv growth with meropenem, percent inhibition; measured here: primary screen without meropenem; at 25 µM

Compound	inhibition [%]
Cc1cccc2nc(COc3ccc4ccccc4c3Br)cn12	16.3
O=C(COc1ccccc1)Nc1nnc(-c2ccccc2Cl)o1	28.7
CC(C)[C@H](NC(=O)c1c(F)cccc1F)C(=O)OCC(=O)NC(=O)NC1CCCC1	-2.91
CCC(CC)c1nc(C(N)=O)c2[nH]c(=O)n(-c3ccc(OC)c(OC)c3)c2n1	2.9
COCCCn1c(=O)/c(=C\c2ccccc2OC(C)C)s/c1=C(/C#N)C(=O)Nc1ccc(C(=O)O)cc1	33
CC1CCN(CC(CS(=O)(=O)c2ccc([N+](=O)[O-])cc2)N2CCC(C)CC2)CC1 (stereo unspecified)	3.44
Cc1cc(C)c(OCC(=O)Nc2ccc(N3CCOCC3)cc2)c(Br)c1	-3.46
Cc1cccc(S(=O)(=O)C(C#N)c2nc3ccccc3nc2N2CCOCC2)c1 (stereo unspecified)	-6.06
CCc1nc(Nc2cccc(OC)c2)c2oc3ccccc3c2n1	9.89
OC(COC(c1ccccc1)c1ccccc1)CN1CCN(c2cccc(Cl)c2)CC1 (stereo unspecified)	21.9
O=C(CSc1nnc(NC(=O)c2ccccc2)s1)NCC1CCCO1 (stereo unspecified)	0.56
CCOC(=O)N1CCC(NC(=O)c2ccc(NC(=O)C3CCCO3)cc2)CC1 (stereo unspecified)	-0.87
COc1cc(C(=O)NCCC(=O)NCCN2CCCCCC2)cc(OC)c1OC	-5.5
Cc1nnc(NC(=O)c2cc(S(=O)(=O)N3CCCCC3)ccc2Cl)s1	-2.72
CCCN1CCN(CCCNC(=O)CN2C(=O)c3cccnc3Oc3ccc(Cl)cc32)CC1	-1.63
COc1ccc(N(CC(=O)NC2CCCCCC2)S(=O)(=O)c2ccccc2)cc1Cl	11.1
O=C(Nc1ccccc1C(=O)NCCCN1CCOCC1)c1ccc(Cl)cc1	3.37
CCOc1ccc(S(=O)(=O)N(C(=O)c2ccco2)c2cc3sc(=O)oc3c3ccccc23)cc1	5.37
Nc1nnc(SCC(=O)N2CCN(c3ccccc3)CC2)s1	6.69
CC[C@]1(c2ccccc2OC)C(=O)N(C(=O)OC)N1C(=O)OC	-0.56
COc1ccc(OC)c(NC(=O)c2sc3nc(Cc4ccccc4)cc(C(F)(F)F)c3c2N)c1	-2.11
CCn1cc(CN2CCC(C(=O)Nc3ccc(Oc4cccnc4)cc3)CC2)c(C)n1	1.35

Compound	inhibition [%]
CN1CCN(C(=O)C2CCC(=O)N(CCc3cccc(F)c3)C2)CC1 (stereo unspecified)	1.59
Cc1ccc(NC(=O)C2CCCN(S(=O)(=O)c3ccc4[nH]c(=O)ccc4c3)C2)cc1C (stereo unspecified)	-7.26
CC(=O)c1c(NCc2ccccc2)nc(=O)n(-c2ccccc2)c1C	-9.48
CCN1CCCC1CNC(=O)c1cc2c(=O)n(C)c3ccccc3c2n1C (stereo unspecified)	-2.36
O=C(NCCCc1ccc(F)cc1)C1CCC(=O)N(CC2CCCCC2)C1 (stereo unspecified)	3.2
Cc1nn(C)c(Cl)c1CN1CCC(Oc2ccc(C(=O)N3CCCC3)cc2)CC1	-2.16
Cc1ccc(-n2nnnc2Sc2nc([N+](=O)[O-])nn2C)cc1	11.5
Cc1nn(CC(=O)NCCCN2CCN(Cc3ccccc3)CC2)c(=O)c2cc(-c3ccccc3)nn12	0.78
Cc1cc(C(=O)Nc2c(F)cc(F)cc2Br)c(C)o1	-8.57
COc1ccccc1-c1cc(-c2ccccc2)nc(=O)[nH]1	-6.19
O=C(/C=C/c1ccccc1)NC1CC2CCC1C2 (stereo unspecified)	-10.2
CCCCN(C)Cc1cc(=O)oc2cc3c(cc12)CCCC3	34.6
COc1ccc(-c2cc3c(=O)n(CC(=O)NCCCN4CCN(Cc5ccccc5)CC4)ncn3n2)cc1	1.94
COC(=O)C1=C(C)NC(=O)/C1=C\c1cc(C)n(-c2c(C)cccc2C)c1C	39.2
COc1ccccc1-n1c(SCC(=O)NCC2CCCO2)nc2c([nH]c3ccccc32)c1=O (stereo unspecified)	-0.58
O=CN1CC(=O)N(c2ccccc2)c2c([nH]c3ccccc23)C1	3.1
O=C(CN(Cc1ccc(Br)cc1)S(=O)(=O)c1ccccc1)NCc1ccccn1	1.29
C=C(C)CSc1nnc([C@@H](N)Cc2c[nH]c3ccccc23)o1	6.62
CCN1CCN(S(=O)(=O)c2ccc(C(=O)Nc3ccccc3)cc2)CC1	-2.24
CCc1cc(C(=O)NC2CCCc3c2cnn3-c2cccc(C)c2C)n(C)n1 (stereo unspecified)	-5.05
COCCN(Cc1cc2cccc(C)c2n2nnnc12)C(=O)C(F)(F)F	2.65
COc1ccc(-c2ccc(-c3nnn(CC(=O)N4CCOCC4)n3)cc2)cc1	1.35

Compound	inhibition [%]
COCCC1CCCCN1C(=O)c1cc(COc2ccc(C)nc2)on1 (stereo unspecified)	-1.25
O=C(NCc1cccnc1)c1noc2c1CCCC2	-1.71
Cc1ccc(CC(=O)Nc2nc3ccccc3[nH]2)cc1C	16.7
Cc1c(C(=O)N2CCN(c3ccccn3)CC2)oc2c1C(=O)CC(C)(C)C2	4.7
COC(=O)c1[nH]c2ccc(C)cc2c1NC(=O)CN1CCN(c2ccccc2)CC1	97
CCOc1ccc(N=c2cc(-c3ccc(OC)cc3)oc3ccccc23)cc1	2.75
COc1ccc(C2=NCC(CSc3nnc(-c4ccc5c(c4)OCO5)o3)S2)cc1 (stereo unspecified)	0.23
COc1ccc2c(c1OC)C(=O)OC2Nc1nc(-c2cc3cc(Br)ccc3oc2=O)cs1 (stereo unspecified)	39.5
C=CCc1c(C)nc(SC)nc1Nc1ccc(C(=O)O)cc1	-7.64
O=C(CSC1CS(=O)(=O)c2cc([N+](=O)[O-])ccc21)NNC(=O)c1ccccc1 (stereo unspecified)	12.1
CCC1CCCCN1CCCNC(=O)CN1C(=O)c2cccnc2Oc2ccc(Cl)cc21 (stereo unspecified)	0.77
CC(C)Oc1ccc(CN2CCC(n3nccc3NC(=O)CCc3ccccc3)CC2)cc1	4.95
COc1cc(C(C)=O)ccc1OCc1cc(C(=O)N2CCSCC2)no1	-2.7
Cc1ccccc1OCC(=O)N/N=C/c1cccc(Oc2ccc([N+](=O)[O-])cc2[N+](=O)[O-])c1	38.1
Clc1ccc(OCCOCCN2CCc3ccccc3C2)c(Cl)c1	97.3
NC(=O)c1cccc2c1-c1ccccc1/C2=N/NC(N)=S	1.99
CC(C)Cn1c2c(c(O)c(C(=O)Nc3nccs3)c1=O)CCCC2	8.72
COc1ccccc1CNC(=O)c1ccccc1OCc1ccc(F)cc1	0.26
Cc1ccc(C)c(N2CCN(S(=O)(=O)c3ccc4c(c3)C(C)(C)C(=O)N4C)CC2)c1	0.22
Cc1ccc(C(=O)Nc2nnc(C3=COCCO3)o2)cc1C	97.2
O=C(c1ccccc1Br)N1CCN(c2ccccc2)CC1	4.19
CC(C)(C)c1cc(C(=O)N/N=C/c2ccc(-c3ccccc3[N+](=O)[O-])o2)n[nH]1	6.86
